Measured values from the supplement of paper PMC12217912.
The other results are listed elsewhere or left out. Sequences were assembled here from the parent chain. Values near 0.05 are background.

B1: TEV protease; numbered along this chain (parent)
chain: MGESLFKGPRDYNPISSSICHLTNESDGHTTSLYGIGFGPFIITNKHLFRRNNGTLVVQSLHGVFKVKDTTTLQQHLVDGRDMIIIRMPKDFPPFPQKLKFREPQREERICLVTTNFQTKSMSSMVSDTSCTFPSGDGIFWKHWIQTKDGQCGSPLVSTRDGFIVGIHSASNFTNTNNYFTSVPKNFMELLTNQEAQQWVSGWRLNADSVLWGGHKVFMVKPEEPFQPVKEATQL

Variants of: B1
Assay: raw area under fraction-flipped curve 0-4 h after induction (AUC4h, not background-subtracted), DNA-recorder readout of cleavage of the substrate (dimensionless); higher = more cleavage of the substrate by the protease variant
Details: temperature: 34 °C; time window: 0-4 h after rhamnose induction
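Also: Bxb1 expression induced with 0.2% (w/v) L-rhamnose at OD600 near 0.5, cultures sampled hourly, flipped fraction per protease–substrate barcode pair counted by paired-end Illumina sequencing.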

Row | Variant | area with substrate EALYFQS | area with substrate ECLYFQS | area with substrate EDLYFQS | area with substrate EELYFQS | area with substrate EGLYFQS | area with substrate EHLYFQS | area with substrate EILYFQS | area with substrate ELLYFQS | area with substrate ERLYFQS | area with substrate ESLYFQS | area with substrate EVLYFQS | area with substrate EWLYFQS | area with substrate EKLYFQS | area with substrate ETLYFQS | area with substrate EMLYFQS | area with substrate EPLYFQS | area with substrate EQLYFQS | area with substrate EYLYFQS | area with substrate EFLYFQS
1 | F218H | 0.0916 | 0.118 | 0.205 | 0.143 | 0.112 | 0.146 | 0.0931 | 0.104 | 0.0973 | 0.119 | 0.184 | 0.0795 | – | – | – | – | – | – | –
2 | F218G | 0.0722 | 0.0969 | 0.109 | 0.0717 | – | 0.0831 | 0.0682 | – | – | 0.0594 | – | – | 0.06 | 0.0559 | – | – | – | – | –
3 | F218S | 0.117 | 0.0962 | – | 0.12 | 0.0898 | 0.0747 | 0.0743 | 0.0817 | 0.0883 | 0.105 | 0.0814 | 0.0878 | 0.0946 | 0.148 | 0.0845 | 0.111 | 0.133 | 0.0968 | –
4 | I139N | – | – | – | – | 0.165 | – | 0.0836 | – | 0.0904 | 0.108 | 0.0829 | – | 0.0958 | 0.107 | 0.107 | 0.098 | 0.143 | – | 0.0777
5 | M188C | – | – | – | 0.138 | – | – | – | 0.0513 | – | 0.0961 | 0.0895 | – | – | – | – | – | 0.107 | – | –
6 | V126G | – | – | – | 0.118 | – | – | 0.114 | – | – | 0.136 | 0.123 | – | 0.119 | – | – | – | 0.108 | – | –
7 | G214V | 0.0954 | 0.092 | – | 0.117 | 0.0794 | 0.076 | – | – | – | 0.0763 | – | – | 0.0842 | 0.0744 | – | – | – | – | –
8 | G214K | 0.0983 | 0.0733 | 0.126 | – | – | 0.141 | 0.054 | 0.1 | 0.0769 | 0.086 | 0.104 | 0.0918 | 0.0963 | – | 0.0621 | 0.0887 | 0.1 | 0.118 | 0.11
9 | G214M | 0.0841 | 0.082 | 0.0572 | 0.0749 | – | – | 0.0638 | – | 0.0697 | 0.0782 | 0.039 | 0.0572 | – | – | – | – | – | – | –
10 | Q227E | 0.107 | 0.127 | 0.137 | 0.142 | 0.0914 | 0.101 | 0.0978 | – | 0.103 | 0.108 | 0.111 | 0.117 | 0.124 | – | 0.0877 | 0.112 | 0.174 | – | –
11 | Q227P | 0.101 | 0.158 | 0.161 | – | – | 0.0901 | 0.0976 | – | – | 0.127 | 0.115 | 0.112 | 0.11 | – | 0.101 | – | 0.129 | 0.121 | –
12 | Q227M | 0.108 | 0.0938 | 0.11 | 0.11 | 0.0893 | 0.114 | 0.0885 | 0.0713 | 0.0936 | 0.112 | 0.12 | – | 0.118 | – | 0.0851 | 0.0975 | 0.114 | – | –
13 | L61N | – | – | – | – | – | 0.1 | 0.0861 | 0.0862 | 0.0952 | 0.0795 | 0.0994 | – | 0.117 | 0.114 | 0.146 | – | 0.0766 | – | –
14 | V217N | 0.0478 | 0.0469 | 0.0652 | 0.0515 | 0.0631 | – | 0.0606 | 0.0612 | 0.0481 | 0.0568 | 0.0638 | – | – | 0.026 | 0.0651 | – | 0.067 | – | 0.0681
15 | V217H | 0.0577 | 0.0531 | 0.0757 | 0.0654 | 0.0604 | – | – | 0.0643 | 0.0545 | 0.0528 | 0.0467 | 0.055 | 0.0559 | 0.0571 | 0.0647 | – | 0.0575 | – | –
16 | T72P | – | 0.0643 | – | – | – | 0.0809 | 0.0769 | – | – | 0.0999 | – | 0.0704 | 0.075 | 0.0966 | – | – | – | – | 0.127

Row | Variant | area with substrate EALYFQS | area with substrate ECLYFQS | area with substrate EDLYFQS | area with substrate EELYFQS | area with substrate EGLYFQS | area with substrate EHLYFQS | area with substrate EILYFQS | area with substrate ELLYFQS | area with substrate ERLYFQS | area with substrate ESLYFQS | area with substrate EVLYFQS | area with substrate EWLYFQS | area with substrate EKLYFQS | area with substrate ETLYFQS | area with substrate EMLYFQS | area with substrate EPLYFQS | area with substrate EQLYFQS | area with substrate EYLYFQS | area with substrate EFLYFQS
17 | V229Y | 0.112 | 0.0882 | – | 0.0741 | – | 0.13 | 0.0797 | 0.103 | 0.0645 | 0.0887 | 0.0828 | 0.0701 | 0.107 | 0.127 | – | – | 0.125 | – | –
18 | V229H | 0.092 | 0.13 | 0.119 | – | – | – | – | 0.128 | – | 0.0894 | 0.0917 | – | – | – | 0.102 | 0.151 | – | – | –
19 | V229L | 0.143 | 0.0814 | 0.125 | 0.161 | 0.124 | – | 0.0964 | 0.111 | 0.162 | 0.136 | 0.0587 | 0.11 | 0.122 | – | – | – | 0.123 | – | 0.117
20 | H62N | – | – | – | – | – | – | 0.105 | 0.105 | – | 0.118 | – | 0.107 | – | 0.128 | – | – | 0.144 | – | –
21 | Q74H | – | – | – | 0.108 | – | – | 0.0842 | – | – | 0.0999 | 0.0863 | – | – | 0.0989 | – | – | 0.0951 | – | –
22 | K68F | – | – | – | – | 0.0832 | – | – | – | – | – | – | – | – | 0.0999 | – | 0.108 | – | – | 0.0823
23 | E224P | 0.101 | 0.0616 | – | 0.109 | – | – | – | – | 0.0869 | 0.097 | 0.0871 | 0.131 | 0.0989 | 0.048 | – | 0.0639 | – | – | 0.0755
24 | E224M | 0.101 | 0.0717 | – | 0.12 | – | – | 0.0768 | – | – | 0.0817 | 0.0791 | 0.0855 | 0.109 | 0.117 | 0.0836 | 0.107 | 0.0978 | 0.0908 | –
25 | E224T | 0.12 | 0.103 | 0.112 | – | – | 0.102 | 0.0868 | – | – | – | 0.0605 | 0.101 | – | – | 0.0718 | – | 0.131 | – | 0.113
26 | A232P | 0.108 | 0.101 | 0.135 | – | 0.0908 | – | – | 0.0981 | 0.0902 | 0.105 | 0.102 | – | – | 0.103 | 0.159 | 0.11 | – | – | –
27 | P225T | 0.109 | 0.121 | 0.144 | 0.103 | 0.0969 | – | 0.0895 | 0.102 | 0.097 | 0.0996 | 0.125 | 0.0803 | – | 0.102 | – | 0.122 | 0.0923 | – | –
28 | P225R | 0.111 | 0.081 | – | 0.1 | 0.0931 | 0.108 | 0.0859 | 0.0886 | 0.102 | 0.107 | 0.101 | 0.0954 | 0.0994 | – | 0.0957 | – | 0.118 | 0.0816 | 0.106
29 | P225W | 0.0907 | 0.102 | – | 0.079 | 0.11 | – | 0.0901 | 0.0853 | 0.0899 | 0.102 | 0.0875 | 0.0746 | 0.106 | 0.132 | 0.0941 | – | 0.107 | – | –
30 | G138Q | – | – | – | – | 0.0825 | – | – | 0.0947 | 0.133 | – | – | – | – | – | – | – | – | – | –
31 | P228N | 0.132 | 0.104 | – | 0.124 | 0.113 | – | 0.0978 | – | 0.109 | 0.0956 | 0.0933 | 0.111 | 0.116 | – | – | 0.125 | 0.121 | – | 0.137
